The list shows a part of the results.
B1: PhoQ; a variant is named by its letters at X, in order, P23837 (parent)
chain: MKKLLRLFFPLSLRVRFLLATAAVVLVLSLAYGMVALIGYSVSFDKTTFRLLRGESNLFYTLAKWENNKLHVELPENIDKQSPTMTLIYDENGQLLWAQRDVPWLMKMIQPDWLKSNGFHEIEADVNDTSLLLSGDHSIQQQLQEVREDDDDAEMTHSVAVNVYPATSRMPKLTIVVVDTIPVELKSSYMVWSWFIYVLSANLLLVIPLLWVAAWWSLRPIEALAKEVRELEEHNRELLNPATTRELTSLVRNLNRLLKSERERYDKYRTTLTDLTHSLKTPLXXLQXXLRSLRSEKMSVSDAEPVMLEQISRISQQIGYYLHRASMRGGTLLSRELHPVAPLLDNLTSALNKVYQRKGVNISLDISPEISFVGEQNDFVEVMGNVLDNACKYCLEFVEISARQTDEHLYIVVEDDGPGIPLSKREVIFDRGQRVDTLRPGQGVGLAVAREITEQYEGKIVAGESMLGGARMEVIFGRQHSAPKDE

Variants of: B1
Assay: enrichment ratio after two sorts for PhoP signalling (ratio (wild type AVST 3.29)); higher = more functional
Conditions: with PhoP (E. coli)

Variant | enrichment ratio
FEMF | ≤ 0.25
VIEF | ≤ 0.25
HLYP | ≤ 0.25
MSTY | 2.56
EPWS | ≤ 0.25
SKLF | 11
DSVF | ≤ 0.25
NDTN | ≤ 0.25
LLSD | ≤ 0.25
NRYW | ≤ 0.25
WYHH | ≤ 0.25
SVTM | 14.7
KCER | ≤ 0.25
FDYC | ≤ 0.25
WQIY | ≤ 0.25
IGDN | ≤ 0.25
KTFQ | ≤ 0.25
DERN | ≤ 0.25
RYRK | ≤ 0.25
FKRG | ≤ 0.25
CFFA | ≤ 0.25
HIFT | ≤ 0.25
HYIK | ≤ 0.25
WICA | 0.253
HQQE | ≤ 0.25
NPGQ | ≤ 0.25

Variant | enrichment ratio
MKLV | 9.89
FWVN | ≤ 0.25
YDGH | ≤ 0.25
NTLN | ≤ 0.25
SPKA | ≤ 0.25
KTWA | ≤ 0.25
SVRY | ≤ 0.25
QCYK | ≤ 0.25
PYFL | ≤ 0.25
YYKM | ≤ 0.25
AMIL | 4.07
VGMK | ≤ 0.25
FEWC | ≤ 0.25
KGAY | ≤ 0.25
YYKP | ≤ 0.25
ICQT | ≤ 0.25
GKPQ | ≤ 0.25
VTGK | ≤ 0.25
RAVK | ≤ 0.25
PIHC | ≤ 0.25
QKPY | ≤ 0.25
KEAI | ≤ 0.25
GESS | 5.41
QCRS | ≤ 0.25
PTFG | ≤ 0.25
QDYY | ≤ 0.25

Variant | enrichment ratio
KRCW | ≤ 0.25
YVHI | ≤ 0.25
PWVL | ≤ 0.25
GTIH | ≤ 0.25
DCRW | ≤ 0.25
QIRN | ≤ 0.25
GFYK | ≤ 0.25
DNLS | ≤ 0.25
TDFH | ≤ 0.25
VMLK | ≤ 0.25
KGLR | ≤ 0.25
QDYV | ≤ 0.25
ISRY | ≤ 0.25
YTQL | ≤ 0.25
GLNY | ≤ 0.25
VERQ | ≤ 0.25
DIWR | ≤ 0.25
PPHD | ≤ 0.25
FMDQ | ≤ 0.25
LYWA | ≤ 0.25
GQCL | 7.51
NFVA | ≤ 0.25
CFFQ | ≤ 0.25
KYEG | ≤ 0.25
WQHI | ≤ 0.25
TIMH | ≤ 0.25

Variant | enrichment ratio
QVYS | ≤ 0.25
EKMC | ≤ 0.25
VSTS | ≤ 0.25
TRSW | ≤ 0.25
WFTR | ≤ 0.25
WYFR | ≤ 0.25
ESMW | ≤ 0.25
TYFR | ≤ 0.25
AAPY | ≤ 0.25
KCPP | ≤ 0.25
YNFY | ≤ 0.25
VCSM | 3.67
IMNR | ≤ 0.25
KCVN | ≤ 0.25
ICPL | ≤ 0.25
RDCN | ≤ 0.25
YTKW | ≤ 0.25
IVWI | ≤ 0.25
QQGN | ≤ 0.25
GMDT | ≤ 0.25
LKWM | ≤ 0.25
EQMN | ≤ 0.25
VCMD | ≤ 0.25
PVQG | ≤ 0.25
AWAK | ≤ 0.25
YKGS | ≤ 0.25

Variant | enrichment ratio
EPCF | ≤ 0.25
PKQE | ≤ 0.25
AYMY | ≤ 0.25
IINP | ≤ 0.25
EDGV | ≤ 0.25
AINQ | ≤ 0.25
AEGK | ≤ 0.25
HPAG | ≤ 0.25
ESTN | ≤ 0.25
TPVM | ≤ 0.25
MINM | ≤ 0.25
EANI | ≤ 0.25
GCVF | ≤ 0.25
KYTY | ≤ 0.25
NQGM | ≤ 0.25
SSSD | ≤ 0.25
HINL | ≤ 0.25
AFQA | ≤ 0.25
TSQM | 24
IESR | ≤ 0.25
KRKI | ≤ 0.25
LCPC | ≤ 0.25
KALQ | ≤ 0.25
NCAY | ≤ 0.25
MLQV | ≤ 0.25
YSFV | ≤ 0.25

Variant | enrichment ratio
LATT | ≤ 0.25
VFWY | ≤ 0.25
EIYA | ≤ 0.25
PVRL | ≤ 0.25
YIAS | 0.335
ISPQ | ≤ 0.25
AQNP | ≤ 0.25
GHIG | ≤ 0.25
VNST | ≤ 0.25
RSHH | 0.726
YQHT | ≤ 0.25
WWAG | ≤ 0.25
ADCV | ≤ 0.25
YSGI | ≤ 0.25
ATYV | 0.444
RIVR | ≤ 0.25
VYLN | ≤ 0.25
FSSD | ≤ 0.25
KNQF | ≤ 0.25
YQET | ≤ 0.25
RYAE | ≤ 0.25
KMKF | ≤ 0.25
KYDE | ≤ 0.25

— a collection of fitness landscapes (doi:10.1126/science.1257360)
